Hit rate of the full screen: of about 350,000 compounds, about 31,000 (8.9%) were called active. The shares of active, inactive and inconclusive entries below differ from those in the screen. The call rests on the fitted dose curve; in most records, active means well fitted inhibition curve with a large enough effect; inconclusive means small, poorly fitted or top-dose-only effect; inactive means no such curve, though single readings can be large or run the other way. Where the call is inconclusive, the potency comes from a doubtful curve fit.
Each compound was assayed against Histone-lysine N-methyltransferase EHMT2 (Homo sapiens) (UniProt Q96KQ7) (assay: qHTS Assay for Inhibitors of Histone Lysine Methyltransferase G9a). Settings: G9a H3K9 monomethylation, AlphaScreen, 2 h; activity, negative = inhibition: at 59 µM (top of the series) unless noted.
Chain of UniProt Q96KQ7 (Q96KQ7 whole entry, looked up): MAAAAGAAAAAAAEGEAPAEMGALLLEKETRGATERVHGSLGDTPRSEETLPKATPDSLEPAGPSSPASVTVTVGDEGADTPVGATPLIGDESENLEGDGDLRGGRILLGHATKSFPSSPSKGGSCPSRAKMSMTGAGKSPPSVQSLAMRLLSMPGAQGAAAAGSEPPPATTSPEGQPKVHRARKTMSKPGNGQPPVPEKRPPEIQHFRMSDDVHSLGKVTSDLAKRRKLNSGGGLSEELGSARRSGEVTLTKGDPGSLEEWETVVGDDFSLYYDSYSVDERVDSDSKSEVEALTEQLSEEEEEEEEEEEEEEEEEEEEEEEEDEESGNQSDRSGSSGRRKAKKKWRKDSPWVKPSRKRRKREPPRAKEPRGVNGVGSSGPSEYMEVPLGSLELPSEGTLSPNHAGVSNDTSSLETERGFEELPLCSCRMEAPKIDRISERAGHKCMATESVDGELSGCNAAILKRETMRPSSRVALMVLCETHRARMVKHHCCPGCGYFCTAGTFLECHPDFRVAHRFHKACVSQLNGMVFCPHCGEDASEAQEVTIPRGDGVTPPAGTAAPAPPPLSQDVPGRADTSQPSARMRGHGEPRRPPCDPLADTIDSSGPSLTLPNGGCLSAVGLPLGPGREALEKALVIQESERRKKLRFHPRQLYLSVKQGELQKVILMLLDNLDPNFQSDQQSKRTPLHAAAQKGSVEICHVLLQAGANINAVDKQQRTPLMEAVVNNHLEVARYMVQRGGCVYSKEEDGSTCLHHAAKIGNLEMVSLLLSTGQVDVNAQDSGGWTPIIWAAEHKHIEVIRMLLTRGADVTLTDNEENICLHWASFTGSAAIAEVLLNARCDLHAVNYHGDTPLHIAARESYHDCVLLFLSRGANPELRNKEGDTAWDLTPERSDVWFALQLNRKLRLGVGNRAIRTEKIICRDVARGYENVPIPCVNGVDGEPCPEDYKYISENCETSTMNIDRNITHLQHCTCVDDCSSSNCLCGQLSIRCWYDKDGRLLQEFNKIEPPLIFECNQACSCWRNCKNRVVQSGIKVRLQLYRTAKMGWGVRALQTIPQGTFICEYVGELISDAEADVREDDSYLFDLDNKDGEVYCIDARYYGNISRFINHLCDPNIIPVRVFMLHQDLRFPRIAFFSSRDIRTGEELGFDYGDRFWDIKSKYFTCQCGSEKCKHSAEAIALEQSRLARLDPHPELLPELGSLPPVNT
Summary of the method: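 Methyltransferase reactions run at room temperature for 2 h (20 nM enzyme, 500 nM biotin-H3K9 peptide, 20 uM SAM) after a 15 min compound preincubation; product detected by AlphaScreen beads and anti-H3K9me1 antibody.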
`COC(=O)c1[nH]c2cccc(Cl)c2c1NC(=O)CN1CCCCC1C` (centres undefined) was tested, and the Potency was inconclusive: 89.1 µM [inhibitor, single point].
In the case of `Cc1ccccc1CNC(=O)Cc1csc2ccccc12`, the Potency is reported as “inactive”.
`CCOC(=O)C1=C(NC(=S)NC(=O)c2ccccc2)c2ccccc2CC1C(C)C` (centres undefined) was tested, and the Potency was inconclusive: 2.82 µM [inhibitor, partial curve, poor fit].
In the case of `COc1ccccc1NC(=O)c1cc(S(=O)(=O)N2CCC3(CC2)OCCO3)ccc1F`, the Potency is reported as “inactive”.
With `O=C(CCCCCBr)N1CCC(CC2CC(c3ccc(Cl)cc3)=NO2)(C(=O)NCC2CCCCC2)CC1` (centres undefined) the Potency was inconclusive: 89.1 µM [inhibitor, single point].
In the case of `O=C(O)c1cc(-c2cccnc2)nc2ccccc12`, the Potency is reported as “inactive”.
For `CCOc1ccc(-c2nc(C#N)c(N3CCN(Cc4ccccc4)CC3)o2)cc1`, the Potency was active: 10 µM.
`Cc1c(CNCCCc2ccccc2)c(C(=O)O)c(C)n1Cc1ccccc1` was tested, and the Potency was inconclusive: 44.7 µM [inhibitor, partial curve, poor fit].
With `O=C(Nc1ccccc1)N1CCc2scc[n+]2-c2ccccc21` the Potency was “inactive”.
For `CC(=O)c1ccc(NC(=O)CSc2ccc(-c3ccco3)nn2)cc1`, the Potency was inconclusive: 63.1 µM [inhibitor, single point].
For `NS(=O)(=O)c1cccc(NC(=O)COC(=O)CNC(=O)c2ccc(-c3ccccc3)cc2)c1`, the Potency was inconclusive: 7.08 µM [inhibitor, single point].
With `COc1ccc(OC)c(CCNC(=O)c2cc3cccc4c3n2CCS4)c1` the Potency was inconclusive: 4.47 µM [inhibitor, full curve].
In the case of `Cc1ccc2nc(-c3ccc(NC(=O)CN(c4ccccc4C)S(C)(=O)=O)cc3)sc2c1`, the Potency is reported as “inactive”.
In the case of `COc1ccc(C2=CC(c3ccc(OC)c(OC)c3)n3nnnc3N2)c(OC)c1` (centres undefined), the Potency is reported as active: 50.1 µM.
In the case of `O=C(CN1C(=O)C2CCCCC2C1=O)Nc1ccccc1N1CCCC1` (centres undefined), the Potency is reported as inconclusive: 89.1 µM [inhibitor, single point].
`Cc1nn(-c2ccccc2)c2nc(C(F)(F)F)[nH]c(=O)c12` was tested, and the Potency was inconclusive: 44.7 µM [inhibitor, partial curve].
For `C/C(=N\NC(=O)c1ccc(N(C)C)cc1)c1cccnc1`, the Potency was active: 25.1 µM.
`O=C(CN1CCN(c2ccc(O)cc2)CC1)NCC(=O)Nc1ccc(F)c(F)c1F` was tested, and the Potency was inconclusive: 8.91 µM [inhibitor, single point].
For `COC(=O)c1sccc1NC(=O)CC1C(=O)NCCN1C(=O)Nc1cc(Cl)ccc1OC` (centres undefined), the activity, negative = inhibition was inconclusive: -62.1% [inhibitor].
`CCN(CC)c1ccc(/C=N/Nc2nc3ccccc3[nH]2)c(O)c1` was tested, and the Potency was inconclusive: 39.8 µM [inhibitor, single point].
In the case of `O=C(Cc1cccs1)Nc1nnc(C2CC2)s1`, the Potency is reported as inconclusive: 56.2 µM [inhibitor, partial curve, poor fit].
`Cc1nc(-c2ccc(Cl)cc2)sc1C(=O)CBr` was tested, and the Potency was inconclusive: 31.6 µM [inhibitor, full curve, poor fit].
For `Cc1cccc(Cc2nnc(CCC(=O)N(C)Cc3ccncc3C)o2)c1`, the Potency was inconclusive: 0.251 µM [inhibitor, partial curve, poor fit].
With `O=C(COc1ccc([N+](=O)[O-])cc1)Nn1cnnc1` the Potency was inconclusive: 3.98 µM [inhibitor, full curve, poor fit].
`CC(CCc1ccccc1)NC(=O)COC(=O)c1ccc(F)cc1` (centres undefined) was tested, and the Potency was “inactive”.
With `CCOc1ccc(S(=O)(=O)N2CCC(C(=O)N3CCN(C)CC3)CC2)cc1Cl` the Potency was inconclusive: 44.7 µM [inhibitor, partial curve].
For `Cc1cc(C)cc(N(CC(=O)Nc2ccc(C)cc2Cl)S(=O)(=O)c2c(C)[nH]c(=O)[nH]c2=O)c1`, the Potency was inconclusive: 39.8 µM [inhibitor, single point].
In the case of `CCOc1ccc(-c2c(C)sc3nc[nH]c(=O)c23)cc1`, the Potency is reported as “inactive”.
In the case of `COc1ccc(CC(=O)OC(C)CN2CCOCC2)cc1` (centres undefined), the Potency is reported as inconclusive: 35.5 µM [inhibitor, partial curve, poor fit].
For `CCCCCCOc1ccc(NC(=O)CC2C(=O)N(CC)C(=S)N2Cc2ccco2)cc1` (centres undefined), the Potency was “inactive”.
In the case of `COc1ccc(N2CCN(C(c3cccc(OC)c3OC)c3nnnn3C3CCCC3)CC2)cc1` (centres undefined), the Potency is reported as active: 12.6 µM.
In the case of `CCOC(=O)C1=C(CSc2nc(-c3ccncc3)ccc2C#N)OC(N)=C(C#N)C1c1cccnc1` (centres undefined), the Potency is reported as active: 35.5 µM.
In the case of `O=C(c1ccc(F)c(F)c1)N1CCCc2ccccc21`, the Potency is reported as “inactive”.
`Cc1ccccc1Nc1c(-c2ccc(O)cc2)nc2c(C)cccn12` was tested, and the Potency was inconclusive: 4.47 µM [inhibitor, partial curve, poor fit].
In the case of `NC(=O)CC[C@@H]1NC(=O)[C@@H]2CCCN2C(=O)c2cc([N+](=O)[O-])cc(F)c2NCCC[C@@H](C(N)=O)NC1=O`, the Potency is reported as inconclusive: 89.1 µM [inhibitor, single point].
`COc1cccc(CNC(=O)CSc2nnc(C)c3c(C)n(-c4ccccc4)nc23)c1` was tested, and the Potency was inconclusive: 5.01 µM [inhibitor, partial curve, poor fit].
With `O=C(NC1CCCC1)c1cc(-c2ccccc2Cl)on1` the Potency was “inactive”.
`Cc1cc(O)c2c(c1)C(=O)c1cccc(O)c1C2=O` was tested, and the Potency was inconclusive: 79.4 µM [inhibitor, single point].
With `CCOc1ccc(NC(=O)c2c(NC(=O)c3ccncc3)sc3c2CCC(C(C)(C)C)C3)cc1` (centres undefined) the Potency was inconclusive: 10 µM [inhibitor, partial curve, poor fit].
With `CCOC(=O)C1=C(C)N(C)C(=O)NC1c1ccccc1OC` (centres undefined) the Potency was “inactive”.
For `CCOc1ccc(N2C(=O)CC(NC3CCN(C(=O)c4cccc(Cl)c4)CC3)C2=O)cc1` (centres undefined), the Potency was inconclusive: 0.708 µM [inhibitor, full curve, poor fit].
`CCCCn1c(N)c(N(CC(C)C)C(=O)c2ccc([N+](=O)[O-])o2)c(=O)[nH]c1=O` was tested, and the activity, negative = inhibition was inconclusive: -61.2% [inhibitor] [at 2.33 µM].
For `O=C(NCc1nnc(SCC(=O)N2CCc3ccccc32)o1)c1ccco1`, the Potency was “inactive”.
In the case of `Cc1sc2nc(CSCC(=O)N(C)c3ccccc3)[nH]c(=O)c2c1C`, the Potency is reported as “inactive”.
`Cc1nc(N)c(S(=O)(=O)c2ccccc2)c(Nc2ccc(Br)cc2)n1` was tested, and the Potency was “inactive”.
In the case of `COc1cccc(-n2c(Cc3cc(=O)[nH]c(=O)[nH]3)nnc2SCc2cccnc2)c1`, the Potency is reported as active: 50.1 µM.
`C=C1c2cc(C)ccc2NC(=O)N1c1ccccc1` was tested, and the Potency was active: 31.6 µM.
For `CC(=O)Oc1ccc(C(=O)[C@H]2[C@H]3C(=O)N(c4cccc5ccccc45)C(=O)[C@H]3[C@@H]3C=CC=NN32)cc1`, the Potency was inconclusive: 5.01 µM [inhibitor, full curve, poor fit].
In the case of `CC(O)[C@H]1CNC(=O)C(=O)N1CCc1cccc2ccccc12` (some centres undefined), the activity, negative = inhibition is reported as inconclusive: -52.4% [inhibitor].
With `COc1ccc(NC(=O)c2ccco2)cc1NC(=O)COc1cc(C)ccc1C(C)C` the Potency was “inactive”.
For `N#CCCn1nc(-c2ccccc2)cc1Nc1ccccc1NC(=O)c1cccs1`, the Potency was inconclusive: 79.4 µM [inhibitor, single point].
In the case of `CCN(Cc1ccccc1)C(=O)c1cccc(S(=O)(=O)N2CCN(c3ccccc3)CC2)c1`, the Potency is reported as inconclusive: 11.2 µM [inhibitor, partial curve, poor fit].
`COc1ccccc1N1CCN(C(CNS(=O)(=O)c2cc(F)ccc2F)c2cccnc2)CC1` (centres undefined) was tested, and the Potency was inconclusive: 100 µM [inhibitor, single point].
`CCCOC(c1ccccc1)(c1ccccc1)C(Oc1nc(C)cc(C)n1)C(=O)O` (centres undefined) was tested, and the Potency was active: 70.8 µM.
For `O=C1CC(c2cccc(F)c2)c2c(c3ccccc3[nH]c2=O)O1` (centres undefined), the Potency was inconclusive: 8.91 µM [inhibitor, partial curve, poor fit].
In the case of `O=C(Nc1ccc(F)cc1)Nc1nnc(SCC(=O)N2CCCCC2)s1`, the Potency is reported as inconclusive: 15.8 µM [inhibitor, partial curve, poor fit].
For `N#CC1(C#N)CC(C=O)=C(N)C1(C#N)CC(=O)c1ccc(F)cc1` (centres undefined), the Potency was active: 31.6 µM.
`O=c1oc2ccccc2c(Nc2cc3ccccc3cc2O)c1[N+](=O)[O-]` was tested, and the Potency was inconclusive: 44.7 µM [inhibitor, partial curve].
`Cc1csc2nc(O)c(C(=O)NCCN3CCOCC3)c(=O)n12` was tested, and the Potency was “inactive”.
For `Cn1c(=O)[nH]c2nnc(-c3ccc(Cl)c(Cl)c3)nc2c1=O`, the Potency was inconclusive: 39.8 µM [inhibitor, single point].
With `C=CCn1c(-c2ccco2)n[nH]c1=S` the Potency was inconclusive: 11.2 µM [inhibitor, partial curve, poor fit].
With `O=C(Cc1ccccc1[N+](=O)[O-])N/N=C/c1cccnc1` the Potency was inconclusive: 4.47 µM [inhibitor, partial curve, poor fit].
In the case of `CCCC(=O)N/N=C1\CS(=O)(=O)N(C)c2ccsc21`, the Potency is reported as “inactive”.
`Cc1ccc(S(=O)(=O)N(C)Cc2ccc(C(=O)N/N=C3\CCCC(=O)C3)cc2)cc1` was tested, and the Potency was “inactive”.
With `CN1C(=O)N(C)C2(c3ccccc3)Nn3c(s/c(=C/c4ccccc4F)c3=O)=NC12c1ccccc1` (centres undefined) the Potency was inconclusive: 1.41 µM [inhibitor, single point].
In the case of `C=CCNC(=O)COc1ccc(Br)cc1Cl`, the Potency is reported as “inactive”.
For `CCn1c2ccc(C)cc2c2nnc(SCCN3CCCCC3)nc21`, the Potency was “inactive”.
For `CC(C)c1ccc(NC2CCCN(C(=O)c3ccco3)C2)cc1` (centres undefined), the Potency was inconclusive: 79.4 µM [inhibitor, single point].
In the case of `Cc1ccc(NC(=O)CCN2C(=O)C3CC=CCC3C2=O)cc1Cl` (centres undefined), the Potency is reported as inconclusive: 31.6 µM [inhibitor, single point].
Further: nearly all actives have a fitted effect of over 75% in size.
On the % scale 0 is the no-effect control and ±100 the full control effect; potency means the concentration at half of the fitted maximal effect; tags describe the fitted curve by direction and shape.
